Data: the supplement of paper PMC7826260
The list shows a part of the results. The data describe in vitro nicking of single-stranded DNA by Rep domains at 3 µM enzyme and 37 °C for 1 h; the strands have 90 letters, of which the middle is given. Values are log2 of uncut reads against the no-enzyme pool; the lower, the more was cut; hits are not called. Shares of all reads are compared; values above 0 arise when much of the pool is cut.

Legend:
Assay in all cases: uncleaved DNA left, log2 of reads against the no-enzyme library (log2 ratio); higher = less cleavage (more negative = more Rep cleavage of the k-mer); sequences stand for … in CTCGTCCG…ACCGGAGA
[1] = tested on: T1, Rep nickase domain of Muscovy duck circovirus
T1 sequence (Rep 1-111, printed without the tag): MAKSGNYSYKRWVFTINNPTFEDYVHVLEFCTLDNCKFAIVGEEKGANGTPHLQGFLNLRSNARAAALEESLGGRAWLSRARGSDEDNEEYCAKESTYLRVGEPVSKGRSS
Protocol: (§1)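 A pool of 90-nt single-stranded DNAs with seven random bases just before the constant AC of the nick site (name = the seven bases) was cut by 3 µM recombinant His6-SUMO-tagged Rep nickase domain (300 nM DNA, 50 mM HEPES pH 8.0, 50 mM NaCl, 1 mM MnCl2, 1 h, 37 °C, three replicates). Uncut DNA was amplified and sequenced.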

[2] = tested on: T2, Rep nickase domain of banana bunchy top virus
T2 sequence (Rep 1-94, printed without the tag): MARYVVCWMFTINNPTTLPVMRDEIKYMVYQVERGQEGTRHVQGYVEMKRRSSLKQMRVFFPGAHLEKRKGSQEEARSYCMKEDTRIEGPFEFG
Protocol: as §1

[3] = tested on: T3, Rep nickase domain of cabbage leaf curl virus
T3 sequence (Rep 1-116, printed without the tag): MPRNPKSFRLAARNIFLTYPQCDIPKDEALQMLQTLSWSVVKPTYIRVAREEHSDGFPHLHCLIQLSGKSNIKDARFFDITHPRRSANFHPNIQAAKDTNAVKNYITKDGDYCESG
Protocol: as §1

[4] = tested on: T4, Rep nickase domain of chickpea chlorotic dwarf virus
T4 sequence (Rep 1-124, printed without the tag): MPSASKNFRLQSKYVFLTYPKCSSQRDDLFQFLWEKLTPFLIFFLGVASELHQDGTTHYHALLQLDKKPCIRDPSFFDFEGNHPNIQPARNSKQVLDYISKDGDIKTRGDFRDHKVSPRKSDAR
Protocol: as §1

[5] = tested on: T5, Rep nickase domain of faba bean necrotic yellows virus
T5 sequence (Rep 1-98, printed without the tag): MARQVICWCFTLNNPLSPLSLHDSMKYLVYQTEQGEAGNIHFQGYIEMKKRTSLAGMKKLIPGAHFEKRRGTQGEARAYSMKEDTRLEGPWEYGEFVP
Protocol: as §1

[6] = tested on: T6, Rep nickase domain of maize striate mosaic virus
T6 sequence (Rep 1-117, printed without the tag): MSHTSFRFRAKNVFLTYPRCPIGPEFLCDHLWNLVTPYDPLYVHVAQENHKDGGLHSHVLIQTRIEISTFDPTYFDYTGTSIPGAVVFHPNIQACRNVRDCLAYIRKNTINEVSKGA
Protocol: as §1

[7] = tested on: T7, Rep nickase domain of porcine circovirus 2
T7 sequence (Rep 2-116, printed without the tag): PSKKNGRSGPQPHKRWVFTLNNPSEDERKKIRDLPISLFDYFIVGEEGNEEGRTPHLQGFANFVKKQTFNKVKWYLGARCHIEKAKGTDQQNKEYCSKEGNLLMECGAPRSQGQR
Protocol: as §1

[8] = tested on: T8, Rep nickase domain of tomato golden mosaic virus
T8 sequence (Rep 1-124, printed without the tag): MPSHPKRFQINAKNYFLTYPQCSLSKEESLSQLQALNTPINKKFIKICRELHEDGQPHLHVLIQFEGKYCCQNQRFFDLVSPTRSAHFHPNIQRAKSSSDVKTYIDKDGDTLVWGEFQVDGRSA
Protocol: as §1

[9] = tested on: T9, Rep nickase domain of tomato yellow leaf curl virus
T9 sequence (Rep 1-136, printed without the tag): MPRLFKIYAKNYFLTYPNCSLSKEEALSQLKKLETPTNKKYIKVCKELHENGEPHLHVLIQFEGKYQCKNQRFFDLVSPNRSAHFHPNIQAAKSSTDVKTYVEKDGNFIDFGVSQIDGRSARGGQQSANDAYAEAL
Protocol: as §1

[10] = tested on: T10, Rep nickase domain of wheat dwarf virus
T10 sequence (Rep 1-137, printed without the tag): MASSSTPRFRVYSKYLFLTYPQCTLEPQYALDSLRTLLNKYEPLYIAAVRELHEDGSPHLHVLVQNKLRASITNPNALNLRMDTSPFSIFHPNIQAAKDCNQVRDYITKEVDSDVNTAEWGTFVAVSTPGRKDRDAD
Protocol: as §1

Row | Sequence | uncleaved DNA left (log2) [1] | uncleaved DNA left (log2) [2] | uncleaved DNA left (log2) [3] | uncleaved DNA left (log2) [4] | uncleaved DNA left (log2) [5] | uncleaved DNA left (log2) [6] | uncleaved DNA left (log2) [7] | uncleaved DNA left (log2) [8] | uncleaved DNA left (log2) [9] | uncleaved DNA left (log2) [10]
1 | GCACAGC | 0.149 | 0.153 | -0.0639 | 0.278 | 0.0142 | -0.297 | 0.161 | 0.0759 | 0.146 | 0.153
2 | AGCCCAT | -0.017 | 0.0481 | 0.49 | 0.957 | 0.00417 | 1.12 | 0.0308 | 0.112 | 0.054 | 0.166
3 | TACCCCC | -0.112 | -0.134 | -0.105 | -1.63 | -0.0822 | -0.349 | -1.22 | -0.268 | -0.0598 | -0.0963
4 | TGGATGA | 0.0903 | -0.0392 | 0.495 | 1.17 | -0.0503 | 1.36 | 0.0534 | -0.0223 | 0.01 | 0.133
5 | GTCGACA | 0.0419 | 0.0741 | 0.387 | 1.05 | -0.0525 | 1.75 | 0.0639 | 0.0709 | -0.0447 | 0.0879
6 | GACGGGT | 0.185 | -0.0101 | 0.392 | 0.738 | 0.101 | 1.27 | 0.125 | 0.189 | -0.0252 | 0.258
7 | ATCATTT | -0.0627 | -0.173 | -0.29 | -2.66 | -0.0469 | -1.04 | -0.262 | 0.0647 | -0.098 | -0.239
8 | TTGCGGC | 0.0307 | -0.117 | -0.711 | -0.705 | -0.201 | -1.22 | -0.0499 | -0.164 | -0.107 | -0.178
9 | CTGTTCA | -0.125 | -0.0147 | -0.0888 | -1.06 | -0.209 | -0.581 | -0.206 | -0.144 | 0.0222 | -0.00785
10 | AGTGAGT | -0.0868 | -0.00978 | -0.00809 | 0.25 | -0.17 | 0.776 | -1.04 | 0.0819 | -0.0652 | -0.0357
11 | CCTGTGC | 0.0526 | -0.0837 | -0.705 | -0.722 | 0.0264 | -1.05 | 0.13 | -0.101 | 0.0403 | -0.00164
12 | TGGACGT | 0.105 | 0.246 | 0.997 | 2.06 | 0.132 | 2.25 | 0.318 | 0.115 | 0.109 | 0.155
13 | GGAGACC | 0.141 | 0.134 | 0.87 | 1.99 | 0.0375 | 2.11 | 0.298 | 0.109 | 0.143 | 0.162
14 | GGGGGGT | -0.00128 | 0.191 | 0.832 | 1.74 | 0.0951 | 2.15 | 0.247 | 0.0643 | 0.00957 | 0.104
15 | ACACGGG | -0.0441 | -0.0148 | -0.549 | -0.0656 | 0.0883 | -0.776 | 0.192 | 0.0074 | 0.0247 | 0.00898
16 | TGGGGAG | 0.119 | 0.0893 | 0.103 | 0.565 | 0.0775 | 0.17 | 0.203 | -0.0882 | -0.0726 | -0.0912
17 | CCGAAGT | 0.00367 | 0.0513 | 0.127 | 0.0721 | 0.113 | -0.134 | -0.039 | 0.163 | -0.0515 | 0.044
18 | CCGATCC | -0.00638 | 0.00906 | 0.17 | 0.0168 | -0.0747 | -0.205 | -0.0396 | 0.16 | -0.161 | 0.127
19 | CCCTACT | -3.32 | -0.173 | -0.282 | -2.24 | 0.163 | -0.59 | -3.11 | 0.103 | 0.27 | -0.0167
20 | CCAACAC | -0.0962 | -0.135 | -0.205 | -1.59 | 0.0216 | -0.834 | 0.0707 | -0.118 | -0.179 | -0.0418
21 | GATATCA | 0.105 | 0.235 | 0.306 | 0.612 | 0.0368 | 1.05 | 0.0941 | 0.0649 | 0.137 | 0.285
22 | AATGCCG | -0.0221 | -0.05 | -0.862 | -0.227 | 0.0341 | -0.968 | 0.125 | -0.0928 | -0.0646 | -0.127
23 | TTCACGA | -0.0117 | 0.0312 | 0.166 | 0.0355 | -0.0311 | -0.247 | 0.0323 | 0.023 | -0.108 | -0.138
24 | AGGTCGT | -0.0947 | 0.019 | -0.136 | -0.299 | -0.0682 | -0.586 | -0.38 | -0.0172 | 0.0609 | 0.085
25 | GGATTCT | -0.406 | 0.019 | 0.411 | 0.878 | 0.0137 | 1.75 | -0.625 | -0.0227 | 0.0159 | 0.155
26 | AATAGAG | 0.023 | -0.0024 | -0.608 | -0.471 | 0.0797 | -1.06 | 0.215 | 0.136 | 0.137 | 0.0434
27 | TTGATGC | -0.0665 | -0.161 | -0.595 | -0.594 | 0.0125 | -1.24 | -0.0388 | -0.248 | -0.118 | -0.115
28 | GTAAACA | 0.0129 | 0.0349 | 0.257 | 0.445 | -0.216 | 1.48 | 0.0323 | 0.0847 | 0.012 | -0.0231
29 | CACAGAA | -0.0208 | -0.0143 | -0.117 | -0.496 | -0.0816 | -0.791 | -0.025 | -0.00494 | -0.155 | -0.0638
30 | GAGAACC | -0.102 | 0.0622 | 0.441 | 0.822 | 0.0275 | 1.21 | -0.109 | -0.0117 | 0.0683 | 0.102
